# From PubChem BioAssay AID686978 (National Center for Advancing Translational Sciences (NCATS), 2013)
# “And” between values parts separate entries of the source, which are not always exact repeats. Equal entries are not always repeated. Out of some 420,000 compounds screened, about 64,000 (15%) were called active. The shares of active, inactive and inconclusive entries below differ from those in the screen. Calls come from the whole dose curve; as a rule, active = well fitted inhibition curve with a large enough effect; inconclusive = small, poorly fitted or top-dose-only effect; inactive = flat fitted curve, though single readings scatter. Potencies of inconclusive entries are left out as doubtful fits.
# Experiment: qHTS for Inhibitors of human tyrosyl-DNA phosphodiesterase 1 (TDP1): qHTS in cells in absence of CPT; note: nearly all actives have a fitted effect of over 55% in size
# Details: DT40 Tdp1-/- hTDP1 cells, no CPT, ATP luminescence, 48 h; activity change, negative = growth inhibition: at 46.2 µM (top of the series) unless noted
# How it was run: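 No-CPT arm: Tdp1-/-;hTDP1 DT40 cells (400/well) plus compounds, incubated ≥48 hr at 37 °C. Readout CellTiter-Glo luminescence.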
# % is set by controls: 0 for no effect and ±100 for the full control effect; potency is the fitted concentration of half-maximal effect; tags give direction and shape of the fitted curve.
Structure (SMILES),Potency,"activity change, negative = growth inhibition"
O=C(Cc1cccs1)N1Cc2ccccc2-n2nncc2C1,"inconclusive [inhibitor, single point]",–
CCOC(=O)c1ccc(N2C(=O)c3n[nH]c(-c4cccs4)c3C2c2ccc(OC)cc2OC)cc1 (stereo not given),active: 20.6 µM,–
COC(=O)c1cn(C(=O)c2cccc3ccccc23)c2ccccc12,active: 9.2 µM,–
C#C[C@]1(O)CC[C@H]2[C@@H]3[C@H](O)C[C@H]4C[C@@H](O)CC[C@]4(C)[C@H]3CC[C@@]21C,"inconclusive [inhibitor, partial curve]",–
CC(C)OP(=O)(OC(C)C)C(NCc1ccccc1)c1ccccc1 (stereo not given),active: 23.1 µM,–
c1ccc(Nc2cccc3ccccc23)cc1,"inconclusive [inhibitor, single point]",–
OCC[N+]12CCC(CC1)C(C(O)(c1ccccc1)c1ccccc1)C2 (stereo not given),–,inactive: -0.58%
CC1CCc2cc(F)cc3c(=O)c(C(=O)O)cn1c23 (stereo not given),"inconclusive [inhibitor, partial curve]",inconclusive: -31.2% [inhibitor]
Cc1nc2ccccc2c(=O)n1-c1ccc(Cl)c(Cl)c1,"inconclusive [inhibitor, single point]",–
Cc1ccc(S(=O)(=O)Nc2cc(C(=O)N3CCC4(CC3)OCCO4)ccc2N2CCCCC2)cc1,"inconclusive [inhibitor, single point]",–
COC(=O)C1=C(c2ccc(OC)c(OC)c2)C[C@@H]2CC[C@H]1N2C(=O)NCCc1ccccc1,"inconclusive [inhibitor, single point]",–
C[C@@H]1O[C@@H](O[C@H]2C[C@@H](O)[C@]3(CO)[C@@H]4C(CC[C@]3(O)C2)[C@@]2(O)CC[C@H](C3COC(=O)C3)[C@@]2(C)C[C@H]4O)[C@H](O)[C@H](O)[C@H]1O (stereo not given in full),"inconclusive [inhibitor, single point]",–
NCCc1ccc(OCc2ccccc2)c(OCc2ccccc2)c1,active: 11.6 µM,–
COc1ccc(Nc2nc3ccc(C)cc3cc2C#N)c(OC)c1,"inconclusive [inhibitor, full curve]",–
CNC(C)C#Cc1ccc2oc3cc(C)c(C)cc3c(=O)c2c1 (stereo not given),active: 14.6 µM,–
Cc1oc2cc3oc(=O)c(CCC(=O)N4CCCCC4)c(C)c3cc2c1C,active: 23.1 µM,–
COC(=O)C1=C(c2ccc(S(C)(=O)=O)cc2)C[C@@H]2CC[C@H]1N2C(=O)NC1CCCCC1,–,inactive: -25.2%
c1ccc2oc(-c3ccc4c(c3)CNCc3cnnn3-4)cc2c1,"inconclusive [inhibitor, single point]",–
O=c1cccc2n1CC1CC2CN(S(=O)(=O)c2ccc(F)cc2)C1 (stereo not given),–,inactive: 5.96%
O=C(COc1ccc2ccccc2c1)N1CCN(Cc2ccncc2)CC1,"inconclusive [inhibitor, partial curve, poor fit]",–
O=C(/C=C/c1ccccc1)NCCc1cnc[nH]1,"inconclusive [inhibitor, partial curve, poor fit]",–
COc1ccc(NC(=O)Nc2cccc3c2O[C@H](CN(C)C(=O)NC2CCCCC2)[C@@H](C)CN([C@H](C)CO)C3=O)cc1,"inconclusive [inhibitor, single point]",–

Structure (SMILES),Potency,"activity change, negative = growth inhibition"
COP(=S)(OC)Oc1ccc(S(=O)(=O)N(C)C)cc1,–,inactive: 4.91%
OC(c1ccccc1)(c1ccccc1)C1CCCN1 (stereo not given),–,inactive: -8.54%
CCOc1ccc(CN(CCc2ccc3c(c2)OCO3)Cc2ccc(CC)cc2)cc1,"inconclusive [inhibitor, single point]",–
COc1ccc(C(=O)O/N=C(/C(N)=O)P(=O)(OC(C)C)OC(C)C)cc1,"inconclusive [inhibitor, single point]",–
O=[N+]([O-])c1cnc[nH]1,–,inactive: -3.71%
O=C(c1c[nH]c(C(=O)C(Cl)(Cl)Cl)c1)c1ccccc1Cl,"inconclusive [inhibitor, single point]",–
COc1cc(O)c2c(c1)/C=C/C[C@H](O)[C@H](O)C(=O)CCC[C@H](C)OC2=O,"inconclusive [inhibitor, single point]",–
CCCCOC(=O)C1=C(N)OC2=C(C(=O)CC(C)(C)C2)[C@]12C(=O)N(C)c1ccccc12,"inconclusive [inhibitor, partial curve]",–
CCCC(=O)C1C(=O)NC(=O)NC1=O,–,inactive: -1.27%
O=P(OC1=CCCCC1)(c1ccccc1)c1ccccc1,"inconclusive [inhibitor, single point]",–
Cc1ccc2[nH]c(C)c(CCNCc3ccco3)c2c1,"inconclusive [inhibitor, partial curve, poor fit]",–
COc1ccc(C(=O)OC2C[C@H]3CC[C@@H](C2)N3O)cc1OC (stereo not given in full),–,inactive: -9.37%
COc1cccc(C(=O)C2CN(C)CC2c2ccc(Cl)cc2)c1 (stereo not given),"inconclusive [inhibitor, single point]",–
O=C(c1ccc(-c2ccccc2)cc1)C1CCCN(Cc2ccn[nH]2)C1 (stereo not given),"inconclusive [inhibitor, single point]",–
CCC1(CCCC(=O)c2ccc(F)cc2)C(=O)NC(=S)NC1=O,–,inactive: -20.7%
COc1ccccc1N1C(=O)NC(=O)/C(=C/c2ccc([N+](=O)[O-])s2)C1=O,active: 14.6 µM,–
CC[C@@H](CO)NC(=O)[C@@H]1C=C2c3cccc4c3c(cn4C)C[C@H]2N(C)C1,inactive,–
CCOC(=O)c1c(/N=C/C2C(=O)NC(=O)NC2=O)sc2c1CCC2,–,inactive: 6.22%
CN1CCCN(C(=O)COc2ccc(F)cc2F)CC1,–,inactive: 15.5%
COc1cc2c(c(OC)c1OC)-c1ccc(OC)c(=O)cc1[C@@H](NC(C)=O)CC2,active: 47.3 nM and active: 188 nM,–
COc1ccc(C2C(C#N)=C(N)Oc3n[nH]c(C)c32)cc1Cn1cc([N+](=O)[O-])cn1 (stereo not given),"inconclusive [inhibitor, single point]",–
COC(=O)C1=C(c2ccc(Cl)c(C(F)(F)F)c2)C[C@@H]2CC[C@H]1N2C(=O)N1CCOCC1,active: 4.61 µM,–
